The experiment has as its target wild-type ezrin 1-586 (UniProt P15311 1-586). The experiment in a line: solid phase assay.
UniProt P15311, sequence (P15311 whole entry): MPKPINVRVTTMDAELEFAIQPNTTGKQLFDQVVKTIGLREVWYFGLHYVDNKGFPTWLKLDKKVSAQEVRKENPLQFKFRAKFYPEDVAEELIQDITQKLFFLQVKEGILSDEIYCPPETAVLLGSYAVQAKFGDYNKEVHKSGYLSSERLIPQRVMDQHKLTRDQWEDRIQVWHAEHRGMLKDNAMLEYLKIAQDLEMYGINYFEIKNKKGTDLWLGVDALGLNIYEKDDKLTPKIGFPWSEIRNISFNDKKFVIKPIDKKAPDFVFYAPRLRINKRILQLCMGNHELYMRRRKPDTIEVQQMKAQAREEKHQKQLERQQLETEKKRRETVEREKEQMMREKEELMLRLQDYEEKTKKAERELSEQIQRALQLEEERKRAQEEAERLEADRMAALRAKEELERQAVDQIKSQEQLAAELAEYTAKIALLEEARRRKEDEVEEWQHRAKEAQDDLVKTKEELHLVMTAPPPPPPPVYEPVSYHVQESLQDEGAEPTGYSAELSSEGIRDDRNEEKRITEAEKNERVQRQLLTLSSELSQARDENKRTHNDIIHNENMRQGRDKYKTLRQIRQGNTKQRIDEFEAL

B1: wild-type ezrin […] (domain or fragment)
chain: not shown
Regarding B1, the binding result is given as “binds”.

For the origin of these results see article PMC2174347 (The Journal of Cell Biology, 2000).
